Test results taken from ChEMBL document CHEMBL4888484, “Replenishing the malaria drug discovery pipeline: Screening and hit evaluation of the MMV Hit Generation Library 1 (HGL1) against asexual blood stage Plasmodium falciparum ,using a nano luciferase reporter read-out” (2022).
In all, about 150,000 compounds went through this assay and about 540 (0.36%) showed an effect of 50% or more. Some of the results follow.

tested on: Plasmodium falciparum; assay: Primary screen in NF54 nanoGlo assay, in single point, at 2uM, 72h; a lower Z score goes with more inhibition; assay type: functional, Erythrocyte; conditions: timepoint 72 hour

| SMILES | % Inhibition | Z score |
| --- | --- | --- |
| Cc1cc(C)cc(-n2nc(C)nc2CNC2CC2)c1 | -11% | 2.03 |
| Cc1cccc(Cl)c1OCCN[C@H]1CCC(=O)N(CC2CC2)CC1 | -14% | 1.36 |
| CCC1(C(=O)N[C@H]2CC[C@H](Nc3ccccn3)CC2)COC1 | 4% | -0.79 |
| O=c1[nH]c2ccccc2c(NCc2ccccc2)c1N1CCN(c2ccccc2)CC1 | 34% | -4.55 |
| CCC1=NO[C@@H](CNC(=O)C2Cc3ccccc3C2)C1 | -10% | 1.14 |
| COCCNC(=O)N1CCC[C@H](Oc2ccc(C)nn2)C1 | -8% | 0.93 |
| CC(CCc1ccc2c(c1)OCO2)NC(=O)N1C[C@@H](O)C[C@H]1CO (stereo not given in full) | -12% | 1.65 |
| Cn1nccc1CCC(=O)N1CC[C@@](O)(c2ccccc2)[C@H]2CCCC[C@H]21 | 0% | -0.07 |
| Cc1cc(C(=O)N(CCCO)Cc2ccc(Cl)cc2)nc(C)n1 | 6% | -1.16 |
| Cc1[nH]c(=O)[nH]c(=O)c1S(=O)(=O)N(C1CCCCC1)C1CCCCC1 | -10% | 1.86 |
| CC(C)(C)C(=O)Nc1ccccc1C(N)=O | -12% | 1.56 |
| COC(=O)N1CCc2ccc(F)cc2[C@@H]1C(=O)Nc1cc(C(F)(F)F)ccc1Cl | -8% | 1.31 |
| CN1CCC(N(Cc2cccnc2)Cc2nnc(-c3ccccc3)o2)CC1 | -29% | 2.92 |
| CCCn1cnnc1CN(C)c1cc(C(C)C)nc(N)n1 | -17% | 2.46 |
| CN(C(=O)c1ccc(Cl)o1)[C@H]1CCN(c2ccccc2)C1=O | 2% | -0.36 |
| COc1ccnc(C(=O)N2CCn3nc(CO)cc3C2)c1 | -9% | 1.85 |
| CCn1nc(C(=O)N[C@H]2CCCc3ccccc32)cc1-c1ccc(C(C)(C)C)cc1 | 3% | -0.44 |
| CN(C(=O)Nc1nncs1)C1CCC(c2ccccc2)CC1 (stereo not given) | 1% | -0.19 |
| CCN(Cc1ccc(C)c2ncccc12)C[C@H]1CCCCO1 | 2% | -0.41 |
| CCn1nncc1C(=O)Nc1cnn([C@@H](C)c2ccccc2)c1 | -7% | 0.94 |
| COC(=O)c1ccc2c(c1)CCCCN2Cc1cn(C)nn1 | 9% | -1.79 |
| CC(C)c1noc(CN2CCN(CC(=O)N[C@@H](C)c3ccc(F)cc3F)CC2)n1 | -8% | 1.04 |

| SMILES | % Inhibition | Z score |
| --- | --- | --- |
| COc1ccc(C2(CNC(=O)C3(N)CC4(CCC4)C3)CCCCC2)cc1OC | -12% | 1.96 |
| CC(=O)N1CC[C@H](NC(=O)N2CCN(CCC(C)(C)C)CC2)C1 | -9% | 1.11 |
| CC(C)Cc1cc(C(=O)N2CCc3[nH][nH]c(=O)c3CC2)[nH]n1 | 0% | -0.05 |
| CNC(=O)CCCC(=O)Nc1ccc(Br)cc1O | -9% | 0.88 |
| Nc1cc(-c2ccc(Br)o2)ncn1 | -8% | 0.97 |
| COc1ccc(CN2Cc3cc(NC(=O)c4cccc(OC)c4)ccc3O[C@@H](C)C2=O)cc1 | -5% | 0.96 |
| CC(=O)N1c2ccccc2C[C@H]1c1nc(C(C)(C)c2ccc(Cl)cc2)no1 | -6% | 1 |
| CCCN(CC(N)=O)c1ncc(-c2ccccc2)s1 | -10% | 0.98 |
| COc1nc(NCC2(CO)CCCC2)ncc1F | -7% | 0.69 |
| O=C(Cc1nc[nH]n1)N1CCCS(=O)(=O)C[C@H]1c1ccccc1 | -7% | 1.31 |
| O=C(c1cc2sccc2[nH]1)N(CCC(F)(F)F)Cc1ccccc1 | -2% | 0.21 |
| Cc1ccccc1Cn1cnc2c1c(=O)n(C1CCCCC1)c(=O)n2-c1ccc(F)c(F)c1 | 4% | -0.71 |
| Cc1ccnc(NCCCOC2CCCCC2)n1 | -19% | 2.1 |
| COc1cccc(C2=NS(=O)(=O)N(C)C(C(=O)N3CCN(c4ccccc4)CC3)=C2)c1 | 0% | 0.06 |
| CC(=O)Nc1ccc(S(=O)(=O)Nc2ccc3nncn3n2)cc1 | 28% | -3.13 |
| Cc1cc(C(=O)NC[C@]2(O)CCOc3ccccc32)no1 | 8% | -1.04 |
| COc1ccc2cc(CN3C[C@@H](C(=O)O)C[C@@H](C(=O)NC4CC4)C3)ccc2c1 | 3% | -0.45 |
| CCC(CC)C(=O)N1CCCN(C(=O)c2ccncc2)[C@H](c2nc(C)n[nH]2)C1 | -3% | 0.59 |
| CCc1c(C)sc2c1CCN(CC(=O)NCc1ccc3c(c1)OCO3)[C@@H]2c1ccccc1 | -14% | 1.41 |
| O=S(=O)([C@H]1CCN(Cc2ccccc2)C1)N1CCC(c2nc3ccccc3s2)CC1 | -21% | 1.89 |
| Cc1noc(C)c1S(=O)(=O)NCc1cccnc1N(C)Cc1ccccc1 | 11% | -0.94 |
| CCCCOCCn1c(C(F)(F)F)ccc(C(N)=O)c1=O | -15% | 1.53 |

| SMILES | % Inhibition | Z score |
| --- | --- | --- |
| CCNC(=O)CC1(Cc2nc3cccnc3n2CC(C)C)CCCC1 | 4% | -0.55 |
| CC(N)C1CCCN(C(=O)c2cn(C(C)(C)C)nc2-c2ccc(F)cc2F)C1 (stereo not given) | 7% | -0.99 |
| Cc1cc(N2CC3CCCC3C2)n2ncnc2n1 (stereo not given) | -4% | 0.6 |
| Cn1cnc2cc(CNC3(C(F)(F)F)CCC3)ccc21 | 18% | -2.07 |
| C[C@H]1CN(C)C(C)(C)CN1c1ccnc(C(=O)NCc2cccnc2)c1 | -9% | 0.83 |
| CN(Cc1ccccc1)c1nc(-c2ccc(F)cc2)c2c(N)n(-c3ccc(Cl)cc3)nc2n1 | 3% | -0.32 |
| CCC(OC1CCCC(C)C1)C(=O)NCC1CCOC1 (stereo not given) | -7% | 1.11 |
| CC(=O)N[C@H]1CNC(=O)C1(c1ccccc1)c1ccccc1 | -2% | 0.25 |
| COc1ccc(CC(=O)N2CCN(C3=Nc4ccccc4Oc4ccc(C)cc43)CC2)cc1 | 0% | -0.02 |
| CCCn1nc(C(=O)N(C)Cc2cccnc2)ccc1=O | -3% | 0.4 |
| COc1cccc2c(=O)n(C3(C4CCCC4)CC3)cnc12 | -6% | 0.8 |
| C[C@H](NC(=O)c1cccc(N(C)C)c1)c1ccc2c(c1)OCCO2 | -4% | 0.51 |
| COCCN1CCC[C@H]1C(=O)NC1CC1 | -3% | 0.57 |
| OCC1([C@H](NCc2cc(O)cc(F)c2)c2ccccc2)CCOCC1 | -11% | 1.14 |
| O=C([C@@H]1CC[C@H](C(=O)N2CCOC3(CCC3)C2)C1)N1CCOC2(CCC2)C1 | 4% | -0.68 |
| C[C@@]1(C(=O)NC2CCCCCCC2)Cn2c(cc3occc32)C(=O)N1c1ccc(Cl)cc1 | -5% | 0.99 |
| CCCN(CC#N)CC(=O)Nc1cc(C)no1 | -5% | 0.46 |
| CC[C@H](NC(=O)c1nc2n(n1)CCCN2)c1ncc[nH]1 | -16% | 1.7 |
| Clc1cc(-n2cnnn2)ccc1Oc1ccccc1 | 2% | -0.2 |
| CCc1cccc(/N=C(\NC(=O)c2ccccc2)N2CCN(Cc3ccccc3F)CC2)c1 | 1% | -0.17 |
| Cc1sccc1NC(=O)NCc1cc(C(F)F)on1 | -11% | 2.03 |
| COc1cccc(CN2CCC[C@H]2c2nnc(C3CCOCC3)[nH]2)c1OC | -7% | 1.33 |

| SMILES | % Inhibition | Z score |
| --- | --- | --- |
| CC(C)Cn1nc2n(c1=O)[C@H](C(=O)N1CCN(c3ccccn3)CC1)CCCC2 | -6% | 0.56 |
| Cc1ccccc1[C@H]1CN(C(=O)Cn2nc(C)c(C)c2C)C[C@@H]1C(=O)O | -2% | 0.22 |
| CN(C[C@H]1CCCO1)C(=O)Nc1ncc(Cc2ccccc2)s1 | -4% | 0.43 |
| O=c1[nH]c(N2CCC3(CC2)OCCO3)nnc1-c1ccccc1 | 2% | -0.32 |
| Cc1cc(C)c(C(=O)NCCN(C(=O)c2oc(C)cc2C)C2CC2)o1 | -7% | 0.67 |
| CC1CN(C(=O)C2CCC(C)(C)O2)CCN(C(=O)C2CCC(C)(C)O2)C1 (stereo not given) | -4% | 0.48 |
| O=C(NCc1ccnc(C(F)(F)F)c1)NC1(C2CC2)CC1 | 7% | -0.64 |
| COc1ccc(CN2CCC[C@]3(CCCN(C)C3)C2)cc1OCC(=O)O | -6% | 1.21 |
| Cc1nc(CN2CCn3c(nnc3C(F)(F)F)C2)sc1C | -8% | 1.07 |
| O=S(=O)(c1cccnc1)N1CCC[C@@H]1Cc1noc(-c2ccccc2)n1 | -7% | 1.35 |
| O=C1CC[C@@H]2CN(c3cnccn3)CC[C@@H]2N1CCc1ccccn1 | -3% | 0.49 |
| CN(CC(F)(F)F)C(=O)CNc1ncccn1 | 3% | -0.38 |
| CN(CCc1ccncc1)C[C@H](O)c1ccccc1F | -8% | 1.14 |
| CCc1ccc(-c2nc(C)c(C(=O)N(CC(=O)O)C3CCOCC3)s2)cc1 | -2% | 0.32 |
| CCC(CC)(CC)NC(=O)c1cc(C)nc(C)n1 | -1% | 0.31 |
| Cc1cc(NC(=O)N2CCC[C@H]2c2nnc3ccccn23)n(C)n1 | -17% | 2.71 |
| CCNc1ccnc(N2CCC(F)(F)CC2)n1 | 1% | -0.13 |
| O=C1CN(Cc2cc(Br)c3c(c2)OCO3)CCN1 | 13% | -1.76 |
| CC(=O)Nc1cc(Cl)ccc1NCC(=O)NCC(F)(F)F | -10% | 1.24 |
